Laboratory results as given in PubChem BioAssay AID493208 (National Center for Advancing Translational Sciences (NCATS), 2011).
Screen size: about 44,000 compounds; about 340 (0.77%) were called active. Not shown: some 5% with an inconclusive outcome. Calls come from the whole dose curve; as a rule, active = well fitted inhibition curve with a large enough effect; inconclusive = small, poorly fitted or top-dose-only effect; inactive = flat fitted curve, though single readings scatter. Some of the results follow.

Assay: Acumen qHTS Assay for Inhibitors of the mTORC1 Signaling Pathway in MEF (Tsc2-/-, p53-/-) Cells: Sytravon;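 note: plate controls were DMSO for no effect and rapamycin for full effect; nearly all actives have a fitted effect of over 50% in size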
Settings: phospho-rpS6 immunofluorescence/PI, 24 h; series mostly up to 38.3 µM; activity change, negative = inhibition: at the top concentration
In short: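 Compounds act on Tsc2-/-, p53-/- fibroblasts carrying an empty vector for 24 h before fixation and dual staining for phospho-S6 and DNA (propidium iodide). Values are percentages of cells above a rapamycin-defined pS6/PI threshold.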

Structure (SMILES)	activity change, negative = inhibition
CCc1ccc(NCc2cccn2-c2nnc(N3CCCCCC3)s2)cc1	inactive: -3.42%
CCOc1ccc(NC(=O)CSc2nnc(CNC(=O)c3c(F)cccc3Cl)o2)cc1	inactive: -0.625%
Cc1ccc2c(c1)N(C(=O)NCc1ccccc1)CCO2	inactive: -4.35%
CCC(C)NC(=O)c1ccc2c(=O)n3c(nc2c1)CCCCC3 (stereo not drawn)	inactive: 0.497%
Cc1ccc(NC(=O)Cn2nnc3sc(-c4ccccc4)cc3c2=O)cc1Cl	inactive: -5.16%
COC(=O)c1ccc(Cl)cc1NC(=O)N(Cc1ccc(C)o1)C1CCN(C(C)=O)CC1	inactive: 1.47%
COc1ccc(C(=O)NCC2(N3CCN(C)CC3)CCCCC2)cc1	inactive: -4.83%
COc1ccc(C)cc1NS(=O)(=O)c1ccc2c(c1)n(C)c(=O)n2C	inactive: 0.0824%
CCC(CC)c1nn2c(=O)cc(COc3ccc(NC(=O)c4cccc(Cl)c4)cc3)nc2s1	inactive: -3.14%
CCn1c(=O)c(=O)n(CC)c2cc(N3CCCCC3)c(NC(=O)c3cccc(F)c3)cc21	inactive: -3.15%
Cc1nnc2c(Nc3cccc(O)c3)nc3ccccc3n12	inactive: 4.36%
CCCN1Cc2cccc(C(=O)Nc3cc(C)cc(C)c3)c2C1=O	inactive: -6.01%
CC(=O)Nc1ccc(C)cc1-c1nc2ccccc2n(CC(=O)Nc2cc(Cl)ccc2C)c1=O	inactive: -15%
COc1ccc(Cl)cc1NC(=O)CCC(=O)N1CCOc2ccccc21	inactive: 1.28%
COc1ccc(NC(=O)Cn2c(=O)n(Cc3ccc(C(=O)NCc4ccccc4Cl)cc3)c(=O)c3ccccc32)cc1OC	inactive: -4.06%
COc1ccc(NC(=O)CSc2nc(-c3ccco3)cc(C(F)(F)F)n2)cc1	inactive: -20.3%
CC(C)c1ccc(OC(=O)c2cc(-c3ccc(Cl)cc3)on2)cc1	inactive: -18.6%
Cc1ccc(-n2ncc3c(NCCCn4ccnc4)ncnc32)cc1Cl	inactive: 12.6%
CCN(CC)C(=O)Cn1c(=O)nc(-c2ccccc2F)c2cc(Cl)ccc21	inactive: 14.1%
COC(=O)c1cnc(NCc2ccc(F)cc2)c2ccccc12	inactive: 0%
Cc1cc(F)ccc1S(=O)(=O)Nc1ccc2c(c1)CCCN2C(=O)c1cccs1	inactive: 2.23%
COc1ccc(N2C(=O)C(CC(=O)Nc3ccc(F)cc3)N(Cc3ccc4c(c3)OCO4)C2=O)cc1 (stereo not drawn)	inactive: -8.91%
O=C1c2[nH]nc(-c3ccccc3O)c2C(c2ccccc2F)N1Cc1ccncc1 (stereo not drawn)	inactive: -4.58%
CCOC(=O)Cc1ccc(NC(=O)NCc2cccn2Cc2ccccc2)cc1	inactive: -1.57%

Structure (SMILES)	activity change, negative = inhibition
COc1ccc(-n2c(=O)c3sc4ccccc4c3n(CC(=O)Nc3ccccc3F)c2=O)cc1	inactive: -1.91%
Cc1ccc(NC(=O)CSc2nc(-c3cccs3)nc3cc(=O)[nH]n23)cc1	inactive: 1.95%
Cc1ccc(Nc2nnc(-c3ccc(C)c(S(=O)(=O)N4CCOCC4)c3)c3ccccc23)c(C)c1	inactive: 19.1%
CCOc1ccc(C(=O)c2cn(Cc3ccc(Cl)cc3)c3cc(OC)c(OC)cc3c2=O)cc1	inactive: 0.863%
CCC(Cc1ccccc1)NC(=O)Cn1ncc2c3ccccc3n(Cc3ccccc3)c2c1=O (stereo not drawn)	inactive: -0.498%
CCc1nc2nc(C)cc(Nc3ccc(OC)cc3OC)n2n1	inactive: -5.92%
Cc1ccc2c(c1)NC(=O)C(CC(=O)Nc1ccccc1Cl)O2 (stereo not drawn)	inactive: -0.0902%
Cc1cc(C)n2nc(SCC(=O)Nc3ccccc3C)nc2n1	inactive: -0.14%
Cc1ccc(Cl)cc1N1CCN(C(=O)c2cc(S(=O)(=O)N3CCCC3)cn2C)CC1	inactive: -4.42%
Cc1ccc(NC(=O)Cn2c(=O)n(-c3ccccc3)c(=O)c3c4c(sc32)CCCC4)cc1	inactive: 2.82%
COc1ccc(C)cc1Nc1nc2cc(Cl)c(Cl)cc2nc1-n1nc(C)cc1C	inactive: -0.0717%
COc1ccc(C)cc1NC(=O)CSc1nc(=O)n(Cc2ccncc2)c2c1CCC2	inactive: 0.518%
C=Cc1ccc(CN2C(=O)N(c3ccc(CC)cc3)S(=O)(=O)c3ccccc32)cc1	inactive: -5.04%
COc1ccc(C(=O)NCCc2sc(-c3ccc(Cl)cc3)nc2C)c(OC)c1	inactive: -16.7%
Cc1ccc(C)c(CN2C(=O)c3ccccc3S(=O)(=O)c3ccc(C(=O)N4CCN(c5ccccn5)CC4)cc32)c1	inactive: 0.622%
CCc1cccc(N2C(=O)N(CC(=O)NCc3cccc(OC)c3OC)c3ccccc3S2(=O)=O)c1	inactive: -8.3%
CCCN1C(=O)C(Cc2nc3ccccc3c(=O)n2-c2ccccc2)c2cc(C)ccc21 (stereo not drawn)	inactive: -28.3%
COc1cc(NC(=O)CN2C(=O)COc3ccc(S(=O)(=O)N4CCCCC4)cc32)cc(OC)c1	inactive: 1.96%
CCOC(=O)COc1ccc(C)cc1C(=O)c1ccn2nc(-c3ccc(C)cc3)cc2n1	inactive: -0.822%
COC(=O)c1ccc(OCC2c3cc(OC)c(OC)cc3CCN2C(=O)C(C)C)cc1 (stereo not drawn)	inactive: 0%
COCCNC(=O)c1ccc(CSc2nc3ccncc3n2Cc2ccccc2)cc1	inactive: 0.863%
O=C(CSc1ncc2c(n1)-c1ccccc1N(Cc1ccccc1)S2(=O)=O)Nc1ccccc1	inactive: 0%
CCC(=O)N1CCc2cc(S(=O)(=O)CCC(=O)N3CCN(c4cc(C)ccc4C)CC3)ccc21	inactive: 1.79%
COc1cccc(NC(=O)CSc2nc3ccccc3n2C)c1	inactive: 0.32%
